# Measurements published in US7423058B2, “Inhibitors of hepatitis C virus NS3 protease” (Schering Corporation, priority 2004, dated 2008).
# Target: Recombinant heterodimeric HCV NS3/NS4A protease (strain 1a) (Hepatitis C virus genotype 1a, UniProt P27958)
# Assay: Spectrophotometric assay for HCV protease inhibitory activity (chromogenic ester substrates)
# Format: biochemical
# Details: Table 1: Ketones; read-out: Ki* Range
row,SMILES,Ki [nM]
1,CC(C)[C@H](NC(=O)N[C@H](C(=O)N1C[C@H]2[C@@H]([C@H]1C(=O)NC(CC1CC1)C(=O)C(N)=O)C2(C)C)C(C)(C)C)C(=O)c1ccc(Cl)cc1 (some centres unmarked) [compound 4075],< 75
2,CCCC(NC(=O)[C@@H]1[C@@H]2[C@H](CN1C(=O)[C@@H](NC(=O)N[C@H](C(=O)c1ccccc1)C(C)C)C(C)(C)C)C2(C)C)C(=O)C(N)=O (some centres unmarked) [compound 4119],< 75
3,C=CCNC(=O)C(=O)C(CCC)NC(=O)[C@@H]1[C@@H]2[C@H](CN1C(=O)[C@@H](NC(=O)N[C@H](C(=O)c1ccncc1)C(C)C)C(C)(C)C)C2(C)C (some centres unmarked) [compound 4170],< 75
4,C=CCNC(=O)C(=O)C(CC1CC1)NC(=O)[C@@H]1[C@@H]2[C@H](CN1C(=O)[C@@H](NC(=O)NC1(CC(=O)C(C)(C)C)CCCCC1)C(C)(C)C)C2(C)C (some centres unmarked) [compound 4115],< 75
5,CC(C)[C@H](OC(=O)N[C@H](C(=O)N1C[C@H]2[C@@H]([C@H]1C(=O)NC(CC1CC1)C(=O)C(N)=O)C2(C)C)C(C)(C)C)C(=O)c1ccccc1 (some centres unmarked) [compound 4179],76 to 250
6,C=C(F)CNC(=O)C(=O)C(CCC)NC(=O)[C@@H]1[C@@H]2[C@H](CN1C(=O)[C@@H](NC(=O)N[C@H](C(=O)C(C)C)C(C)C)C(C)(C)C)C2(C)C (some centres unmarked) [compound 4194],76 to 250
7,CC(C)(C)[C@H](NC(=O)N[C@H](C(=O)c1ccccc1)C1CCCC1)C(=O)N1C[C@H]2[C@@H]([C@H]1C(=O)NC(CC1CC1)C(=O)C(N)=O)C2(C)C (some centres unmarked) [compound 4055],< 75
8,CC(C)[C@H](NC(=O)N[C@H](C(=O)N1C[C@H]2[C@@H]([C@H]1C(=O)NC(CC1CCC1)C(=O)C(N)=O)C2(C)C)C(C)(C)C)C(=O)c1ccccc1 (some centres unmarked) [compound 4082],< 75
9,CC(C)(C)[C@H](NC(=O)N[C@H](C(=O)C1CC1)C1CCCCC1)C(=O)N1C[C@H]2[C@@H]([C@H]1C(=O)NC(CC1CC1)C(=O)C(N)=O)C2(C)C (some centres unmarked) [compound 4023],< 75
10,CC(C)[C@H](NC(=O)N[C@H](C(=O)N1C[C@H]2[C@@H]([C@H]1C(=O)NC(CC1CC1)C(=O)C(N)=O)C2(C)C)C(C)(C)C)C(=O)C1CCCCC1 (some centres unmarked) [compound 4063],< 75
11,C=CCNC(=O)C(=O)C(CCC)NC(=O)[C@@H]1[C@@H]2[C@H](CN1C(=O)[C@@H](NC(=O)N[C@H](C(=O)c1ccc(OC)cc1)C(C)C)C(C)(C)C)C2(C)C (some centres unmarked) [compound 4088],< 75
12,Cc1cnc(C(=O)[C@@H](NC(=O)N[C@H](C(=O)N2C[C@H]3[C@@H]([C@H]2C(=O)NC(CC2CC2)C(=O)C(N)=O)C3(C)C)C(C)(C)C)C(C)C)s1 (some centres unmarked) [compound 4087],< 75
13,CCCC(NC(=O)[C@@H]1[C@@H]2[C@H](CN1C(=O)[C@@H](NC(=O)N[C@H](C(=O)C1CC1)C(C)C)C(C)(C)C)C2(C)C)C(=O)C(=O)NC (some centres unmarked) [compound 4187],76 to 250
14,CC(=O)[C@@H](NC(=O)N[C@H](C(=O)N1C[C@H]2[C@@H]([C@H]1C(=O)NC(CC1CC1)C(=O)C(N)=O)C2(C)C)C(C)(C)C)C(C)C (some centres unmarked) [compound 4070],< 75
15,C=CCNC(=O)C(=O)C(CCC)NC(=O)[C@@H]1[C@@H]2[C@H](CN1C(=O)[C@@H](NC(=O)N[C@H](C(=O)c1nccs1)C1CCCCC1)C(C)(C)C)C2(C)C (some centres unmarked) [compound 4158],< 75

# Same assay, conditions: Table 3, Esters; read-out: Ki* Range
row,SMILES,Ki [nM]
1,C=CCNC(=O)C(=O)C(CCC)NC(=O)[C@@H]1[C@@H]2[C@H](CN1C(=O)[C@@H](NC(=O)N[C@H](C(=O)OCC1CC1)C1CCC1)C(C)(C)C)C2(C)C (some centres unmarked) [compound 4481],< 75
2,C=CCNC(=O)C(=O)C(CCCC)NC(=O)[C@@H]1[C@@H]2[C@H](CN1C(=O)[C@@H](NC(=O)N[C@H](C(=O)OC(C)(C)C)C(C)C)C(C)(C)C)C2(C)C (some centres unmarked) [compound 4416],< 75
3,C=CCNC(=O)C(=O)C(CCC(F)(F)F)NC(=O)[C@@H]1[C@@H]2[C@H](CN1C(=O)[C@@H](NC(=O)N[C@H](C(=O)OC(C)C1CC1)C(C)C)C(C)(C)C)C2(C)C (some centres unmarked) [compound 4461],< 75
4,CC(C)[C@H](NC(=O)N[C@H](C(=O)N1C[C@H]2[C@@H]([C@H]1C(=O)NC(CC1CC1)C(=O)C(N)=O)C2(Cl)Cl)C(C)(C)C)C(=O)OC1Cc2ccccc2C1 (some centres unmarked) [compound 4640],> 250
5,CC(C)(C)[C@H](NC(=O)N[C@H](C(=O)N1C[C@H]2[C@@H]([C@H]1C(=O)NC(CC1CC1(F)F)C(=O)C(N)=O)C2(C)C)C(C)(C)C)C(=O)OCc1ccccc1 (some centres unmarked) [compound 4567],76 to 250
6,CC(C)[C@H](NC(=O)N[C@@H](CC(C)(C)C)C(=O)OCc1ccccc1)C(=O)N1C[C@H]2[C@@H]([C@H]1C(=O)NC(CC1CC1)C(=O)C(N)=O)C2(C)C (some centres unmarked) [compound 4592],76 to 250
7,CC1(C)[C@@H]2[C@@H](C(=O)NC(CC3CC3)C(=O)C(N)=O)N(C(=O)[C@@H](NC(=O)NC3(C(=O)OCc4ccccc4)CC4CCC3C4)C3CCCCC3)C[C@@H]21 (some centres unmarked) [compound 4435],< 75
8,C=CCNC(=O)C(=O)C(CCC)NC(=O)[C@@H]1[C@@H]2[C@H](CN1C(=O)[C@@H](NC(=O)N[C@H](C(=O)OCc1ccccc1)C1CCCCC1)C(C)(C)C)C2(C)C (some centres unmarked) [compound 4455],< 75
9,CC(C)[C@H](NC(=O)N[C@H](C(=O)N1C[C@H]2[C@@H]([C@H]1C(=O)NC(CC1CC1)C(=O)C(N)=O)C2(C)C)C(C)(C)C)C(=O)OCC1(C)CC1 (some centres unmarked) [compound 4387],< 75
10,CC1(C)C[C@@H](C(=O)NC(CC2CC2)C(=O)C(N)=O)N(C(=O)[C@@H](NC(=O)N[C@H](C(=O)OC(C)(C)C)C(C)(C)C)C2CCCCC2)C1 (some centres unmarked) [compound 4617],76 to 250
11,CC(C)(C)[C@H](NC(=O)NC1(C(=O)OCc2ccc(-c3ccccc3)cc2)CCCCC1)C(=O)N1C[C@H]2[C@@H]([C@H]1C(=O)NC(CC1CC1)C(=O)C(N)=O)C2(C)C (some centres unmarked) [compound 4661],> 250
12,CC(C)(C)[C@@H](NC(=O)N[C@@H](C(=O)N1C[C@H]2[C@@H]([C@H]1C(=O)NC(CC1CCC1)C(=O)C(N)=O)C2(C)C)C(C)(C)C)C(=O)OC1Cc2ccccc2C1 (some centres unmarked) [compound 4663],> 250
13,C=CCNC(=O)C(=O)C(CCC(F)(F)F)NC(=O)[C@@H]1[C@@H]2[C@H](CN1C(=O)[C@@H](NC(=O)N[C@H](C(=O)OC(C)(C)C)C(C)(C)C)C(C)(C)C)C2(C)C (some centres unmarked) [compound 4431],< 75
14,C=CCNC(=O)C(=O)C(CCC)NC(=O)[C@@H]1[C@@H]2[C@H](CN1C(=O)[C@@H](NC(=O)NC1(C(=O)OC(C)(C)C)CCCCC1)C(C)(C)C)C2(C)C (some centres unmarked) [compound 4600],76 to 250
15,CC[C@@H](C)[C@H](NC(=O)N[C@H](C(=O)N1C[C@H]2[C@@H]([C@H]1C(=O)NC(CC1CC1)C(=O)C(N)=O)C2(C)C)C(C)(C)C)C(=O)OCc1ccccc1 (some centres unmarked) [compound 4499],< 75
16,CC(C)(C)OC(=O)CCNC(=O)C(=O)[C@H](CC1CC1)NC(=O)[C@@H]1[C@@H]2[C@H](CN1C(=O)[C@@H](NC(=O)N[C@H](C(=O)OCC1CC1)C(C)(C)C)C(C)(C)C)C2(C)C [compound 4504],< 75
17,CC(C)(C)OC(=O)[C@@H](NC(=O)N[C@H](C(=O)N1C[C@H]2[C@@H]([C@H]1C(=O)NC(CC1CC1)C(=O)C(N)=O)C2(C)C)C1Cc2ccccc2C1)C(C)(C)C (some centres unmarked) [compound 4364],< 75
18,C=CCNC(=O)C(=O)C(CCC)NC(=O)[C@@H]1[C@@H]2[C@H](CN1C(=O)[C@@H](NC(=O)N[C@H](C(=O)OC(C1CC1)C1CC1)C(C)C)C(C)(C)C)C2(C)C (some centres unmarked) [compound 4310],< 75
19,C=CCNC(=O)C(=O)C(CC1CC1)NC(=O)[C@@H]1[C@@H]2[C@H](CN1C(=O)[C@@H](NC(=O)N[C@H](C(=O)OCc1ccccc1)C(C)(C)C)C(C)(C)C)C2(C)C (some centres unmarked) [compound 4593],76 to 250
20,CC(C)(C)C[C@H](NC(=O)N[C@H](C(=O)N1C[C@H]2[C@@H]([C@H]1C(=O)NC(CC1CC1)C(=O)C(N)=O)C2(C)C)C(C)(C)C)C(=O)OCc1ccoc1 (some centres unmarked) [compound 4421],< 75
21,C=CCNC(=O)C(=O)C(CCCC)NC(=O)[C@@H]1[C@@H]2[C@H](CN1C(=O)[C@@H](NC(=O)N[C@H](C(=O)OC(C)C)C(C)C)C(C)(C)C)C2(C)C (some centres unmarked) [compound 4559],76 to 250
22,CCOC(=O)CNC(=O)N[C@H](C(=O)N1C[C@H]2[C@@H]([C@H]1C(=O)NC(CC1CCC1)C(=O)C(N)=O)C2(C)C)C1CCCCC1 (some centres unmarked) [compound 4653],> 250
23,C=CCNC(=O)C(=O)C(CCCC)NC(=O)[C@@H]1[C@@H]2[C@H](CN1C(=O)[C@@H](NC(=O)N[C@H](C(=O)OC(C)(C)C)C(C)(C)C)C1(C)CCCCC1)C2(C)C (some centres unmarked) [compound 4492],< 75
24,COc1ccc(COC(=O)C2(NC(=O)N[C@H](C(=O)N3C[C@H]4[C@@H]([C@H]3C(=O)NC(CC3CC3)C(=O)C(N)=O)C4(C)C)C(C)(C)C)CCCCC2)cc1 (some centres unmarked) [compound 4452],< 75
25,CC[C@H](NC(=O)N[C@H](C(=O)N1C[C@H]2[C@@H]([C@H]1C(=O)NC(CC1CC1)C(=O)C(N)=O)C2(C)C)C(C)(C)C)C(=O)OCc1ccccc1 (some centres unmarked) [compound 4516],< 75

# Same assay, conditions: Table 4: Carboxylic Acids; read-out: Ki* Range
row,SMILES,Ki [nM]
1,CC(C)(C)[C@H](NC(=O)N[C@H](C(=O)N1C[C@H]2[C@@H]([C@H]1C(=O)NC(CC1CCC1)C(=O)C(N)=O)C2(C)C)C(C)(C)C)C(=O)O (some centres unmarked) [compound 4703],< 75

# Same assay, conditions: Table 6; read-out: Ki* range
row,SMILES,Ki [nM]
1,CC1(C)[C@@H]2[C@@H](C(=O)NC(CC3CC3)C(=O)C(N)=O)N(C(=O)[C@@H](NC(=O)NC3(Cc4ccncc4)CCCCC3)C3CCCCC3)C[C@@H]21 (some centres unmarked) [compound 4955],< 75
2,CC(C)(C)[C@H](NC(=O)NC1(Cc2cccnc2)CCCCC1)C(=O)N1C[C@H]2[C@@H]([C@H]1C(=O)NC(CC1CC1)C(=O)C(N)=O)C2(C)C (some centres unmarked) [compound 4944],< 75
3,CC(C)[C@@H](Cc1nccs1)NC(=O)N[C@H](C(=O)N1C[C@H]2[C@@H]([C@H]1C(=O)NC(CC1CCC1)C(=O)C(N)=O)C2(C)C)C(C)(C)C (some centres unmarked) [compound 4948],< 75
4,CC(C)[C@@H](Cc1nccs1)NC(=O)N[C@H](C(=O)N1C[C@H]2[C@@H]([C@H]1C(=O)NC(CC1CC1)C(=O)C(N)=O)C2(C)C)C(C)(C)C (some centres unmarked) [compound 4949],< 75
5,CC(C)(C)OC(=O)N1CCCC(Cc2ccccc2)(NC(=O)N[C@H](C(=O)N2C[C@H]3[C@@H]([C@H]2C(=O)NC(CC2CC2)C(=O)C(N)=O)C3(C)C)C(C)(C)C)C1 (some centres unmarked) [compound 4978],76 to 250

# Same assay, conditions: Table 8; read-out: Ki*
row,SMILES,Ki [nM]
1,CC(C)[C@H](NC(=O)N[C@H](C(=O)N1C[C@H]2[C@@H]([C@H]1C(=O)NC(CC1CC1)C(=O)C(N)=O)C2(C)C)C(C)(C)C)C(=O)c1ccccc1 (some centres unmarked) [drawing 1470],5
